Test results reported in PubChem BioAssay AID212 (DTP/NCI, 2004).
Records with an inconclusive call do not appear. For part of its entries the source gives two or more results. This list holds those alone. An entry can have further records. Values given together are repeats across runs, samples, wells, individuals or studies. Marks in square brackets tell the records apart. Letters hold for one entry only.

Test system: BDF1 mice, colon carcinoma 38 sc, T/C %
Experiment: NCI In Vivo Anticancer Drug Screen. Data for tumor model Colon Carcinoma 38 (subcutaneous) in B6D2F1 (BDF1) mice
Conditions: endpoint: median tumor weight (est.), higher = larger tumour
In short: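 Compound antitumor activity was assessed in mice carrying transplantable tumors. Survival or tumor size was recorded, and each value is the treated-group measurement divided by that of the vehicle-treated control group.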

[1] = dose: 25.0 mg/kg/injection, schedule: Q07DX002 (ip), vehicle: saline with Tween-80
[2] = dose: 12.5 mg/kg/injection, schedule: Q07DX002 (ip), vehicle: water
[3] = dose: 50.0 mg/kg/injection, schedule: Q07DX002 (ip), vehicle: saline with Tween-80
[4] = dose: 200.0 mg/kg/injection, schedule: Q07DX002 (ip), vehicle: saline with Tween-80
[5] = dose: 400.0 mg/kg/injection, schedule: Q07DX002 (ip), vehicle: saline with Tween-80
[6] = dose: 200.0 mg/kg/injection, schedule: Q07DX002 (ip), vehicle: saline
[7] = dose: 400.0 mg/kg/injection, schedule: Q07DX002 (ip), vehicle: saline
[8] = dose: 100.0 mg/kg/injection, schedule: Q07DX002 (ip), vehicle: saline

O=C1c2ccccc2C(=O)c2c(NCCNCCO)ccc(NCCNCCO)c21
T/C (dose: 1.5 mg/kg/injection, schedule: Q07DX003 (ip), vehicle: saline): 50 % of control and 188 % of control | T/C (dose: 3.12 mg/kg/injection, schedule: Q07DX003 (iv), vehicle: Klucel (hydroxypropylcellulose) (HPC)): 22 % of control and 83 % of control | T/C (dose: 6.0 mg/kg/injection, schedule: Q07DX003 (ip), vehicle: saline): 58 % of control and 110 % of control | T/C (dose: 6.25 mg/kg/injection, schedule: Q07DX003 (iv), vehicle: Klucel (hydroxypropylcellulose) (HPC)): 48 % of control and 77 % of control | T/C (dose: 12.5 mg/kg/injection, schedule: Q07DX003 (iv), vehicle: Klucel (hydroxypropylcellulose) (HPC)): 20 % of control and 55 % of control

COC1=C(OC)C(=O)C(Sc2ccc3ccccc3c2)=CC1=O
T/C [1]: 53 % of control and 115 % of control

CCCCCCCCCCCCCCCCCCCCCC(=O)Nc1ccn(C2OC(CO)C(O)C2O)c(=O)n1 (stereo unspecified)
T/C (dose: 50.0 mg/kg/injection, schedule: Q07DX002 (ip), vehicle: saline): 48 % of control and 76 % of control

CO[C@@H]1[C@H](O)CC[C@]2(CO2)[C@H]1[C@@]1(C)O[C@@H]1CC=C(C)C
T/C (dose: 12.5 mg/kg/injection, schedule: Q07DX002 (ip), vehicle: saline with Tween-80): 39 % of control, 84 % of control, 85 % of control | T/C [1]: 42 % of control, 68 % of control, 71 % of control | T/C (dose: 100.0 mg/kg/injection, schedule: Q07DX002 (ip), vehicle: saline with Tween-80): 27 % of control and 84 % of control

O=C1NC(O)c2ccccc2O1 (stereo unspecified)
T/C (dose: 200.0 mg/kg/injection, schedule: Q07DX002 (ip), vehicle: suspension in saline): 50 % of control and 80 % of control | T/C (dose: 400.0 mg/kg/injection, schedule: Q07DX002 (ip), vehicle: suspension in saline): 71 % of control and 123 % of control | T/C (dose: 800.0 mg/kg/injection, schedule: Q07DX002 (ip), vehicle: suspension in saline): 39 % of control and 98 % of control

O=NN(CCCl)C(=O)NC1[C@H](O)CCC[C@@H]1O (stereo partly specified)
T/C (dose: 5.0 mg/kg/injection, schedule: Q07DX002 (ip), vehicle: saline): 28 % of control, 43 % of control, 57 % of control

Oc1cc2c3c(c1)c1cc4c(cc1c[n+]3CC2)OCO4
T/C [2]: 108 % of control and 151 % of control | T/C (dose: 100.0 mg/kg/injection, schedule: Q07DX002 (ip), vehicle: water): 52 % of control and 85 % of control

O=C(Nc1nncs1)c1cccs1
T/C [1]: 84 % of control and 117 % of control | T/C [3]: 58 % of control and 87 % of control | T/C [4]: 73 % of control and 115 % of control | T/C [5]: 53 % of control and 100 % of control | T/C (dose: 800.0 mg/kg/injection, schedule: Q07DX002 (ip), vehicle: saline with Tween-80): 55 % of control and 118 % of control

CN(C)N=Nc1cccc(C(N)=O)c1
T/C (dose: 80.0 mg/kg/injection, schedule: Q07DX002 (ip), vehicle: saline): 38 % of control and 79 % of control

O=c1n(CC2CO2)c(=O)n(CC2CO2)c(=O)n1CC1CO1 (stereo unspecified)
T/C [1]: 161 % of control [sample A] and 120 % of control [sample B] | T/C (dose: 25.0 mg/kg/injection, schedule: Q07DX002 (ip), vehicle: suspension in saline): 66 % of control [sample A] and 86 % of control, 107 % of control [sample B]

CCOC(=O)c1c[nH]c2oc(/C=N/N3CC(CN4CCOCC4)OC3=O)cc2c1=O (stereo unspecified)
T/C (dose: 12.5 mg/kg/injection, schedule: Q07DX003 (ip), vehicle: saline): 108 % of control and 178 % of control | T/C (dose: 50.0 mg/kg/injection, schedule: Q07DX003 (ip), vehicle: saline): 101 % of control and 175 % of control | T/C (dose: 400.0 mg/kg/injection, schedule: Q07DX003 (ip), vehicle: saline): 73 % of control and 161 % of control

Cn1cnc([N+](=O)[O-])c1S(=O)(=O)NCN1CCOCC1
T/C (dose: 25.0 mg/kg/injection, schedule: Q07DX002 (ip), vehicle: Klucel (hydroxypropylcellulose) (HPC)): 51 % of control and 109 % of control | T/C (dose: 50.0 mg/kg/injection, schedule: Q07DX002 (ip), vehicle: Klucel (hydroxypropylcellulose) (HPC)): 62 % of control and 96 % of control | T/C (dose: 200.0 mg/kg/injection, schedule: Q07DX002 (ip), vehicle: Klucel (hydroxypropylcellulose) (HPC)): 49 % of control and 78 % of control

Nc1ccc(S(N)(=O)=O)cc1
T/C (dose: 225.0 mg/kg/injection, schedule: Q07DX002 (ip), vehicle: saline with Tween-80): 43 % of control and 110 % of control | T/C (dose: 450.0 mg/kg/injection, schedule: Q07DX002 (ip), vehicle: saline with Tween-80): 59 % of control and 95 % of control | T/C (dose: 900.0 mg/kg/injection, schedule: Q07DX002 (ip), vehicle: saline with Tween-80): 62 % of control and 93 % of control

OC(CCl)CN1CC[N+]2(CC1)CC[N+]1(CCN(CC(O)CCl)CC1)CC2 (stereo unspecified)
T/C [6]: 49 % of control and 75 % of control | T/C [7]: 29 % of control and 56 % of control

CC(=O)OCC1OC(n2ccc(N)nc2=O)C(OC(C)=O)C1OC(C)=O (stereo unspecified)
T/C [8]: 68 % of control and 112 % of control | T/C [6]: 56 % of control and 124 % of control | T/C [7]: 38 % of control and 72 % of control

C=CCc1cn(C2CC(O)C(CO)O2)c(=O)[nH]c1=O (stereo unspecified)
T/C [6]: 81 % of control and 123 % of control | T/C [7]: 50 % of control and 106 % of control | T/C (dose: 800.0 mg/kg/injection, schedule: Q07DX002 (ip), vehicle: saline): 35 % of control and 88 % of control

O=C1NC(=O)/C(=C/C=C/c2ccccc2)S1
T/C [3]: 78 % of control and 106 % of control | T/C [4]: 102 % of control and 195 % of control | T/C [5]: 59 % of control and 192 % of control

Nc1nc(=O)n(C2OC(CO)C(O)C2O)cc1F (stereo unspecified)
T/C [8]: 94 % of control and 121 % of control | T/C [7]: 36 % of control and 103 % of control

C[CH2][Ge]([CH2]C)[CH2]C.C[CH2][Ge]([CH2]C)[CH2]C.C[CH2][Ge]([CH2]C)[O][Ge]([CH2]C)[CH2]C
T/C [5]: 70 % of control and 96 % of control

COC(=O)C12OCC34C(CC5C(C)=CC(=O)C(O)C5(C)C3C(O)C1O)OC(=O)C(OC(=O)CC(C)C)C24 (stereo unspecified)
T/C (dose: 0.25 mg/kg/injection, schedule: Q07DX002 (ip), vehicle: saline + alcohol): 91 % of control and 178 % of control

Nc1n[n+](-c2ccccc2)no1
T/C [2]: 66 % of control, 113 % of control, 114 % of control | T/C (dose: 25.0 mg/kg/injection, schedule: Q07DX002 (ip), vehicle: water): 68 % of control, 106 % of control, 108 % of control

CC(=O)OC1C2OC3C=C(C)CCC3(CO)C(C)(C1OC(C)=O)C21CO1 (stereo unspecified)
T/C (dose: 8.0 mg/kg/injection, schedule: Q07DX003 (ip), vehicle: saline): 38 % of control and 64 % of control
